Source: the supplement of paper PMC10126150
Values marked as one replicate rest on one cluster of the flow cell; about a third of the high ones do not repeat.

system: ATP; assay: switch fluorescence ratio, 500 uM ATP over buffer (Cy3 cluster intensity, sum of 5 cycles each) (fold (ratio)); higher = stronger signal-on switching upon ATP binding; sequences stand for … in TCGTCGGCAGCGTCAGATGTGTATAAGAGACAGTTTTTTTTTTTTTTTTTTTTTTTTT…TC; conditions: aptamer strand: ATP DNA aptamer (quencher-CACCTGGGGGAGTATTGCGGAGGAAGG + anchor), 100 nM annealed; ATP concentration: 500 uM; one replicate
Outline: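 Cy3-labelled switching-strand clusters on a modified Illumina MiSeq flow-cell were annealed to 100 nM quencher-labelled ATP aptamer, imaged in selection buffer, then imaged after 15 min with 500 uM ATP at 22 °C. Five buffer/ATP cycles ran, with NaOH stripping and re-annealing between them. The fluorescence ratio is summed target-cycle over summed buffer-cycle Cy3 intensity per cluster, averaged per switch-domain sequence. Clusters outside 100-1000 RFU were excluded.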
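Note: ATP exposure 15 min at 22 °C before imaging.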

Sequence | switch fluorescence ratio
TGAACATAGG | 1.02
TGAACCGGGG | 0.976
TGAACCTG | 0.988
TGAACGCGGG | 0.978
TGAACGGAAG | 1.06
TGAACGTGGG | 1.01
TGAACTGC | 1.04
TGAACTTTAC | 1.26
TGAAGAAAAG | 1.04
TGAAGAGGGA | 0.997
TGAAGCATGG | 1.26
TGAAGCGCGT | 1.02
TGAAGCTCTG | 1.03
TGAAGGCGTT | 0.987
TGAAGTACTG | 1.02
TGAAGTTAAT | 1.03
TGAATAACGA | 1.01
TGAATACAG | 1.03
TGAATATATC | 0.999
TGAATCGGCC | 1.02
TGAATGACGC | 1.12
TGAATGCATC | 1.01
TGAATGCCAA | 1.02
TGAATGCCTT | 1.03
TGAATGGGCG | 0.937
TGAATTATGC | 0.989

Sequence | switch fluorescence ratio
TGAATTGCTG | 0.839
TGAATTTGGC | 0.946
TGACACAGGG | 1.11
TGACACGACT | 1.03
TGACAGAGCA | 1.32
TGACAGTAAT | 1.08
TGACAGTCAC | 1.09
TGACATACAC | 1.33
TGACCAGTCG | 0.999
TGACCCAAGA | 1.02
TGACCGGAAA | 0.998
TGACCTAAAA | 0.982
TGACCTATAT | 1.04
TGACCTCAAG | 0.97
TGACCTCAGT | 1.02
TGACGACGAT | 1.48
TGACGATGGA | 1.04
TGACGCAGAA | 2.56
TGACGCTTA | 1.17
TGACGTGAGG | 1.02
TGACGTTAAC | 1.07
TGACTAAGAT | 1
TGACTAGCT | 1.16
TGACTAGTAT | 0.986
TGACTATTG | 0.971
TGACTGGCAC | 1.18

Sequence | switch fluorescence ratio
TGACTGTAAC | 1.18
TGACTTAG | 1.05
TGACTTTA | 0.996
TGACTTTGAG | 1.01
TGAGAAATAG | 1.1
TGAGAATCAT | 0.991
TGAGAGTCTT | 1.01
TGAGAGTGTA | 0.947
TGAGATCGT | 0.958
TGAGATTTAC | 0.966
TGAGCCAAGG | 1.06
TGAGCCGGTA | 0.962
TGAGCGATAT | 1.92
TGAGCGATGT | 1.01
TGAGCTTGTT | 1.14
TGAGGAGAGG | 1.02
TGAGGAGCC | 0.929
TGAGGATTTC | 0.949
TGAGGCAAGT | 1.36
TGAGGGACCT | 1.05
TGAGGGATG | 0.989
TGAGGGTATT | 0.985
TGAGGGTCAC | 1.01
TGAGGTTCCT | 1.05
TGAGTATGGA | 0.99
